Laboratory results from PubChem BioAssay AID485344 (National Center for Advancing Translational Sciences (NCATS), 2010).
Several values for one entry are separate records, joined by “and”; a condition that tells them apart may be missing. Equal values may be shown once. In all, about 340,000 compounds went through this assay and about 6,900 (2%) were called active. No stated cut-off is given here; in the data, active means inhibition above about 30%; inactive means below that, where a call was filed. The entries are a selection whose mix differs from that of the whole data set. Entries without a call were filed so in the source.

Molecular target: D(2) dopamine receptor (Homo sapiens) (UniProt P14416)
UniProt P14416, sequence (P14416 whole entry, looked up): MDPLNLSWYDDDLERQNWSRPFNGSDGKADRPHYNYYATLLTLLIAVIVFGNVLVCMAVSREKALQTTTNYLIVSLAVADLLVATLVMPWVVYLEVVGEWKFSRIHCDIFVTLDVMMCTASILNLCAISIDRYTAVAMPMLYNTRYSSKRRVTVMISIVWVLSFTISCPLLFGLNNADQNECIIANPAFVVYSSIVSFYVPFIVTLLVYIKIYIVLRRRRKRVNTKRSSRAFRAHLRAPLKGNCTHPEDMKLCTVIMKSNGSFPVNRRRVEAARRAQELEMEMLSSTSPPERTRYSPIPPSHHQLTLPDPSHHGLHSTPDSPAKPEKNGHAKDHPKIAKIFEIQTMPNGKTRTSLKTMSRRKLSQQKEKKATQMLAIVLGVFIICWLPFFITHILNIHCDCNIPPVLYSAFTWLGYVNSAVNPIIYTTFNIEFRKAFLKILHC
Assay: HTS Assay for Allosteric Antagonists of the Human D2 Dopamine Receptor: Primary Screen for Antagonists; further: 0% is about no effect
Conditions: HEK293 TREx D2 cells, calcium flux, dopamine EC80; at 10 µM; stronger effect = higher value
How it was run: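 Overnight-induced (tetracycline, 30 C) HEK293 T-REx cells carrying force-coupled D2 receive a no-wash calcium dye, then compound, then EC80 dopamine at 180 s; signals are read kinetically throughout.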

| SMILES | inhibition |
| --- | --- |
| CC1CCCCN1CCCNC(=O)c1cc(Sc2cccc(Cl)c2)nc2ccccc12 (stereo not drawn) | 24.3% |
| CCOc1ccccc1NC1(c2ccccc2)C(=O)c2ccccc2C1=O | 8.06% |
| CCn1c(=O)n(-c2ccc3c(c2)OCO3)c2nc(-c3ccc(C(C)C)cc3)nc(C(N)=O)c21 | 3.49% |
| O=C(Nc1cccc(Cl)c1)C1CCCN(c2nn3cc(-c4ccc(F)cc4)nc3s2)C1 (stereo not drawn) | -3.69% |
| COc1ccc(OC)c(NC(=O)Cn2c(=O)c3cccn3c3ccccc32)c1 | -26.7% |
| CCOc1ccc2c(c1)c(=O)c(C(=O)c1ccc(CC)cc1)cn2CC(=O)Nc1ccccc1OC | 24.4% |
| COC(=O)COc1cccc2c(=O)n(CC(=O)N3CCCc4ccccc43)ccc12 | active: 30.9% |
| Cc1ccc(S(=O)(=O)c2cn(CC(=O)Nc3cccc(Cl)c3)c3ccccc3c2=O)cc1 | -1.96% |
| CCOc1ccc(C(=O)Nc2cc(-c3nc4cc(OC)ccc4o3)ccc2C)cc1[N+](=O)[O-] | 6.32% |
| Cc1ccc(Cl)cc1NC(=O)CSc1nc2ccccc2c2nc(-c3ccccc3)nn12 | 6.97% |
| CCOC(=O)C1CCN(C(=O)c2nn(-c3ccc(OC)c(Cl)c3)c(=O)c3c2c2ccccc2n3C)CC1 | -14.5% |
| O=C(CN1CCC(O)(c2ccccc2F)CC1)NCCc1c[nH]c2ccccc12 | active: 86% |
| O=C(CCn1c(=O)c2cccn2c2cccnc21)NCc1ccccc1Cl | 7.81% |
| O=C(CSc1nc2ncccc2[nH]1)Nc1cc(F)ccc1F | -0.863% |
| C=CCc1cccc(/C=N/NC(=O)C(C)Nc2cccc(C)c2)c1O (stereo not drawn) | active: 31% |
| COc1cccc(N2CCN(C(=O)C3CCCN(S(=O)(=O)c4cccc5nsnc45)C3)CC2)c1 (stereo not drawn) | -2.76% |
| O=C(NCC(c1cccnc1)N1CCN(c2ccccc2F)CC1)C(=O)Nc1ccc(F)cc1F (stereo not drawn) | -15.6% |
| CCOc1ccc(C(=O)c2cn(CC(=O)Nc3ccc4c(c3)OCO4)c3ccc(OC)cc3c2=O)cc1 | -8.29% |
| CCOc1cc(CNC(=O)c2ccccc2NC(=O)c2nsc3ccccc23)ccc1OC | 1.77% |
| Cc1ccc(C(=O)N(Cc2ccco2)Cc2ccco2)cc1 | -14.2% |
| CCOc1cccc(CC(=O)NCc2ccc3c(c2)CCN3C(=O)c2ccc(F)cc2)c1OCC | -23.8% |
| CCOc1ccc(NC(=O)Cn2cc(C(=O)c3cccs3)c3ccccc32)cc1 | 1.9% |
| CC1(C)S[C@@H]2[C@H](NC(=O)C(C(=O)O)c3ccccc3)C(=O)N2[C@H]1C(=O)O (stereo partly drawn) | active: 32.8% |
| O=C(Cn1c(-c2cccs2)cc2ccccc21)N1CCN(c2ccccc2F)CC1 | 5.03% |

| SMILES | inhibition |
| --- | --- |
| COc1ccc(NC(=O)CSC2=Nc3ccccc3C3=NC(CC(=O)NCc4ccco4)C(=O)N23)cc1 (stereo not drawn) | -17.9% |
| O=C(CSc1nnc(-c2ccncc2)n1-c1ccccc1)Nc1ccc(Cl)c(Cl)c1 | -14.8% |
| Clc1ccc(CCNc2nc3ccccc3c3nc(-c4ccccc4)nn23)cc1 | -6.05% |
| COc1ccc2c(CC(=O)Nc3ccc(C)cc3)coc2c1 | 2.35% |
| CCC(CC)C(=O)Nc1ccc2nc(SCc3ccccc3)sc2c1 | 15.1% |
| CS(=O)(=O)c1ncc(Cl)c(C(=O)Nc2c(C(=O)Nc3ccccc3)oc3ccccc23)n1 | -1.04% |
| Cc1cccc(Nc2ncc(NC(=O)c3cccc(F)c3)c(Nc3cccc(C)c3)n2)c1 | 16.2% |
| COc1ccc(CN(C)c2ccc(-c3nc(-c4ccccc4)no3)cc2[N+](=O)[O-])cc1 | 5.55% |
| COc1cccc(CCNC(=O)c2cnc3sc(N4CCCCCC4)nn3c2=O)c1 | 1.47% |
| O=C(Nc1ccc2oc(-c3cccnc3)nc2c1)c1ccc(-c2cccc(Cl)c2)o1 | 20.5% |
| COc1cc(NC(=O)CC2C(=O)N(c3cccc(C)c3)C(=O)N2Cc2ccco2)cc(OC)c1 (stereo not drawn) | -2.04% |
| COc1ccc(S(=O)(=O)c2c(Nc3c(C)cccc3C)sc(C(=O)c3ccc4c(c3)OCO4)c2N)cc1 | 16.6% |
| Cc1ccc(-n2nc3c(=O)n(CC(=O)NC(C)C)nc(C)c3c2C)cc1 | 8.62% |
| CCOc1ccc(CNC(=O)c2ccc3c(c2)N(CC)CCS3)cc1 | 0.966% and active: 60.9% |
| CCCCOc1ccc(C(=O)NCCc2sc(-c3ccc(OC)c(OC)c3)nc2C)cc1 | -3.18% |
| O=C(Nc1cccc(O)c1)c1cc2nc(-c3ccc(Br)cc3)cc(C(F)(F)F)n2n1 | -17.2% |
| COc1ccc(N2CCN(C(=O)CSc3c4c(nc5ccc(Cl)cc35)CCCC4)CC2)cc1 | -19.1% |
| Cc1cccc(N2CCN(S(=O)(=O)c3ccc4c(c3)C(C(C)C)C(=O)N4)CC2)c1C (stereo not drawn) | -10.2% |
| Cc1ccc(-c2nnc(SCC(=O)c3ccc(Cl)cc3)n2-c2ccccc2)cc1 | 9.15% |
| COc1cccc(N(Cc2nnc3n2CCCCC3)C(=O)Nc2ccccc2)c1 | -5.83% |
| Cc1nc2nc(NC(=O)c3ccc(C(C)(C)C)cc3)[nH]n2c(=O)c1Cl | 7.96% |
| Cc1oc(-c2ccccc2F)nc1CSCC(=O)N1CCN(c2ccccc2)CC1 | 22.1% |
| CCOc1ccc(CCNC(=O)Cn2c(-c3cccs3)cc3cc(F)ccc32)cc1OCC | -13.7% |
| CCCc1cc(N2CCN(c3ccccc3)CC2)n2cnnc2n1 | -16.2% |

| SMILES | inhibition |
| --- | --- |
| CCc1ccccc1NCc1nnc2n1CCCCC2 | 20.2% |
| Cn1c(=NC(=O)c2ccc(S(=O)(=O)N3CCCC3)cc2)sc2cc(F)ccc21 | -25.6% |
| O=C1COc2cc(S(=O)(=O)CCC(=O)N3CCN(c4ccccc4F)CC3)c(Cl)cc2N1 | -3.82% |
| Cc1ccccc1CNc1nc(N(C)C)nc2c1cnn2C | -4.37% |
| Cc1ccc(NC(=O)C2CCN(S(=O)(=O)c3ccc4[nH]c(=O)ccc4c3)CC2)cc1C | 16.3% |
| Cc1cccn2c(Nc3ccccc3)c(-c3cccs3)nc12 | -0.455% |
| COc1ccccc1NC(=O)CSc1nc2nccnc2c(=O)n1CCc1c[nH]c2ccccc12 | 6.19% |
| CSc1ccc(S(=O)(=O)NCC(=O)OCC(=O)NCCc2ccccc2)cc1[N+](=O)[O-] | active: 33.2% |
| CCN(CC)CCNC(=O)CSc1nc2nc(C)c(Cc3ccccc3)c(C)n2n1 | -2.08% |
| CCOc1ccccc1NC(=O)CCn1cnnn1 | 10.2% |
| Cc1[nH]c2ccccc2c1C(c1ccccc1)c1ccc(Cl)s1 (stereo not drawn) | -8.59% |
| COc1cccc(CNC(=O)Cc2ccc(NC(=O)N3CCSc4ncccc43)cc2)c1OC | -0.085% |
| COc1cccc(NS(=O)(=O)c2ccc3c(c2)[C@H]2C=CC[C@H]2[C@@H](c2ccccc2Cl)N3)c1 | 13.8% |
| Clc1ccc(OCCCN2CCc3ccccc3C2)c(Br)c1 | active: 63.9% |
| Cc1cccc(N2CCN(C(=O)C3CCCN(S(=O)(=O)c4ccc(Br)s4)C3)CC2)c1C (stereo not drawn) | -4.56% |
| CCOC(=O)C1CCC(CN(Cc2ccc(Cl)cc2)S(=O)(=O)c2cc(Cl)cc(Cl)c2)CC1 (stereo not drawn) | 1.45% |
| Cc1ccc2scc(N3CCC(C)CC3)c(=O)c2c1 | 12.9% |
| Cc1cccc(N2CCN(C(=O)CN3C(=O)COc4ccc(S(=O)(=O)N5CCC(C)CC5)cc43)CC2C)c1 (stereo not drawn) | -1.37% |
| CC(C)c1nc2ccc(C(=O)NCCCN3CCN(c4cccc(Cl)c4)CC3)cc2o1 | 1.93% |
| CCOC(=O)N1CCN(Cc2nc3cc([N+](=O)[O-])ccc3n2C(C)C)CC1 | 9.57% |
| CCOc1ccc(CCNC(=O)c2nc(-c3cccc(F)c3)n3c2CCCCC3)cc1OCC | 7.03% |
| CCOc1ccc(CNC(=O)c2cnc3sc(N4CCOCC4)nn3c2=O)cc1OC | 10.7% |
| COc1ccc(-c2nc3cc(C)ccn3c2NC(=O)c2ccc(F)cc2)cc1 | 10.5% |
| NS(=O)(=O)c1ccc(CCNC(=O)c2ccc3nc(CCc4ccccc4)oc3c2)cc1 | 18.6% |

| SMILES | inhibition |
| --- | --- |
| Cc1cc2c(cc1S(=O)(=O)N(C)CC(=O)Nc1ccc(C#N)cc1)OCC(=O)N2 | -19.9% |
| Cn1c(=O)c2c(SCC(=O)NCc3ccco3)nc(-c3cccc(F)c3)nc2n(C)c1=O | 0.379% |
| Cc1ccc(S(=O)(=O)c2cn(CC(=O)Nc3ccccc3C)c3cc4c(cc3c2=O)OCO4)cc1 | 19.3% |
| CCOc1ccc(CC(=O)Nc2c(C(=O)Nc3ccc(OC)cc3OC)oc3ccccc23)cc1 | -1.39% |
| Cc1sc2nc(CSc3ccccc3)nc(N3CCN(C)CC3)c2c1C | active: 89.9% |
| CCOC(=O)c1c(S(=O)(=O)N2CCCC(C(=O)Nc3cccc(C#N)c3)C2)c(C)n(C)c1C (stereo not drawn) | 12.1% |
| Cc1ccccc1CNC(=O)c1cccc(NC(=O)N2CCSc3ncccc32)c1 | -1.46% |
| CC(Oc1ccccc1)C(=O)Nc1ccc(OCc2cc(=O)n3ccsc3n2)cc1 (stereo not drawn) | -5.57% |
| Cc1ccc(Cl)cc1NC(=O)C1CCCN(S(=O)(=O)c2cccc3cccnc23)C1 (stereo not drawn) | -15.2% |
| Cc1ccccc1NC(=O)c1c(NC(=O)c2ccco2)sc2c1CCC(C(C)(C)C)C2 (stereo not drawn) | 2.48% |
| CCC(=O)N1CCc2cc(Br)cc(S(=O)(=O)N3CCCC(C(=O)Nc4cccc(C)c4C)C3)c21 (stereo not drawn) | -18.8% |
| COc1ccc(N2C(=O)CS(=O)(=O)C23C(=O)N(Cc2ccc(F)cc2)c2ccc(C)cc23)cc1 (stereo not drawn) | -6.73% |
| COc1ccccc1CNC(=O)CSc1nc2nc(C)c(Cc3ccccc3Cl)c(C)n2n1 | 2.1% |
| COc1ccc(CCNC(=O)c2cccc(-n3cnc4cccnc43)c2C)cc1OC | 0.0073% |
| CC(CNC(=O)CN1C(=O)COc2ccc(S(=O)(=O)N3CCCCCC3)cc21)c1ccccc1 (stereo not drawn) | -5.5% |
| CCCCNC(=O)c1nn(-c2ccc(C)cc2)c(=O)n(C)c1=O | 3.08% |
| COc1cc(NC(=O)CSc2nc3nc(C)c(Cc4ccccc4)c(C)n3n2)cc(OC)c1 | 11.4% |
| COc1ccc(C2OC[C@H]3O[C@H](O)[C@H](NC(C)=O)[C@@H](O)[C@@H]3O2)cc1 (stereo partly drawn) | active: 52.9% |
| CCOc1ccc2nc(N3CCCC(C(=O)NCCc4ccc(SC)cc4)C3)sc2c1 (stereo not drawn) | -6.05% |
| CCOc1cc(CN2CCN(C(=O)c3ccco3)CC2)ccc1OC | active: 74.3% |
| CCN(c1ccc(C)cc1C)S(=O)(=O)c1nnc(NC(=O)CC(C)C)s1 | 1.09% |
